# In all, about 200,000 compounds went through this assay and about 10 (0.005%) were called active. The shares of active, inactive and inconclusive entries below differ from those in the screen. Calls come from the whole dose curve; as a rule, active = well fitted inhibition curve with a large enough effect; inconclusive = small, poorly fitted or top-dose-only effect, or effect the other way, or another doubt; inactive = no such curve, though single readings can be large or run the other way. Potencies of inconclusive entries are left out as doubtful fits.
# Target: Lysosomal alpha-glucosidase (Homo sapiens) (UniProt P10253)
# Test: qHTS Assay for Inhibitors of Human alpha-Glucosidase as a Potential Chaperone Treatment of Pompe Disease;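 for activity change, negative = inhibition: plate controls were uninhibited enzyme wells for no effect and no-enzyme background for full effect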
# Conditions: purified human GAA, 4-MU-alpha-glucoside fluorescence; activity change, negative = inhibition: at 76.9 µM (top of the series) unless noted
# Summary of the method: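 Human alpha-glucosidase, 4 nM, pre-mixed with test compounds before 400 uM 4-methylumbelliferyl substrate; 20 min room temperature at pH 5.0. Fluorescence read after pH 10 stop; AC50 values from Hill-equation fits.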
# Potency is the fitted concentration of half-maximal effect; tags give direction and shape of the fitted curve.
SMILES,"activity change, negative = inhibition",Potency
O=C(NCCc1c[nH]c2ccccc12)/C(=C/c1ccco1)NC(=O)c1ccco1,inconclusive: 16.9% [activator],–
Nc1cc(-c2ccccc2)nn1S(=O)(=O)c1ccc(F)cc1,–,"inconclusive [inhibitor, single point]"
C=CCN1C2CCCC1CC(NC(=O)Nc1cccc(C(C)=O)c1)C2 (stereo not drawn),inconclusive: -16% [inhibitor],–
CN(C)c1ccc(O)c2c1CC1CC3[C@@H](N(C)C)C(=O)C(C(N)=O)=C(O)[C@]3(O)C(=O)C1=C2O (stereo partly drawn),–,"inconclusive [inhibitor, single point]"
CCOC(=O)COc1c(OC)cc(Cl)cc1C1Nc2ccccc2C(=O)N1c1cccc(C)c1 (stereo not drawn),–,"inconclusive [activator, partial curve, poor fit]"
Cc1cccc(NC(=O)c2cc(N3CCOCC3)nc3ccccc23)c1,inconclusive: 18.7% [activator],–
Cc1ccc(C)c(NC(=O)CCC(=O)N/N=C/c2cc([N+](=O)[O-])ccc2O)c1,inconclusive: 18.1% [activator],–
O=C1CCCC2=C1C(c1ccncc1)Nc1ccccc1N2 (stereo not drawn),–,"inconclusive [inhibitor, full curve, poor fit]"
CCC12CN(C(=O)c3ccc(C)cc3)CC(CC)(CN(C(=O)c3ccc(C)cc3)C1)C2=O,–,"inconclusive [inhibitor, single point]"
CCC1Cc2c(nc(N)c3c(N)nc(N4CCOCC4)c(C#N)c23)O1 (stereo not drawn),inactive: 13.2%,–
CCOc1ccc(N2CC(C(=O)NCc3ccc(C)n3C)CC2=O)cc1 (stereo not drawn),–,"inconclusive [inhibitor, partial curve, poor fit]"
Cc1c(C(=O)NCC2CCCO2)oc2ccc3c(c12)C(=O)CC(C)(C)O3 (stereo not drawn),–,"inconclusive [inhibitor, single point]"
COc1ccc(C2=Nc3ccccc3OC2)cc1,inactive: 0.399%,–
CCOc1cc(CNc2ccc3[nH]c(=O)[nH]c3c2)ccc1OCC(=O)NC(C)(C)C,inactive: -6.64%,–
Cc1cc(OCc2ccc(C(=O)NN=C3CCCC3)cc2)ccc1Cl,inactive: -4.05%,–
COc1cc(/C=C/C(=O)O)ccc1OS(=O)(=O)c1ccc(C)cc1,–,"inconclusive [inhibitor, partial curve]"
CCOC(=O)N1CCN(c2ccccc2OC)CC1,inactive: -3.74%,–
CCOC(=O)CNc1c(-c2ccc(Cl)cc2)nc2cnccn12,–,"inconclusive [activator, single point]"
Cc1cc(NC(=O)c2cccs2)ncc1NC(=O)c1cccc(F)c1,inactive: 10.1%,–
O=c1c2ccccc2nc(/C=C/c2c[nH]c3ccccc23)n1CCO,–,"inconclusive [inhibitor, single point]"
Cc1oc2c(c1C(=O)N1CCC(C)CC1)C(=O)c1ccccc1C2=O,inactive: -1.18%,–
O=C(NC1CCC(C(=O)O)CC1)OCc1ccccc1 (stereo not drawn),–,"inconclusive [inhibitor, partial curve]"
C/C(=N\Nc1ccc(F)cc1F)c1ccc(Br)s1,inconclusive: -17.3% [inhibitor],–

SMILES,"activity change, negative = inhibition",Potency
Cc1ccc(C2=NN(C3=NN=C(N)Cc4ncnn43)C(O)(C(F)(F)F)C2)cc1 (stereo not drawn),inconclusive: 14.9% [activator],–
CC(=O)N=Cc1c(C)c(C#N)c(=O)n(C)c1O,inactive: 0.676%,–
CC1CCN(C(C(=O)Nc2ccc(C(C)C)cc2)c2ccc3c(c2)OCO3)CC1 (stereo not drawn),–,"inconclusive [inhibitor, single point]"
COc1ccc2c(c1)c1ncn(CC3CCCO3)c(=O)c1n2C (stereo not drawn),–,"inconclusive [activator, partial curve]"
COc1cccc(NC(=O)CN(C)C(C)C(=O)Nc2ccc(C(C)=O)cc2)c1 (stereo not drawn),inconclusive: -17.9% [inhibitor],–
O=C1CC(c2ccccc2)Cc2nc3nc(C(F)(F)F)nn3cc21 (stereo not drawn),–,"inconclusive [inhibitor, partial curve]"
CN(C)/C=N/C1=C(C#N)C(c2cccs2)c2ccc3ccccc3c2O1 (stereo not drawn),–,"inconclusive [inhibitor, full curve]"
O=C(C1CCCO1)N1CCN(C(=S)Nc2ccc(F)c(Cl)c2)CC1 (stereo not drawn),inconclusive: 15.3% [activator],–
CCOC(=O)C1=C(O)/C(=C/c2ccc(-c3ccccc3C(=O)O)o2)SC1=Nc1ccc(OC)cc1,inconclusive: -16.2% [inhibitor],–
CCOC(=O)c1c(C)oc2c1c(C=NCc1ccccn1)c(O)c1ccccc12,inactive: -12.7%,–
O=C(COc1ccc(F)cc1)N1CCC(c2ccccc2)C1 (stereo not drawn),–,"inconclusive [inhibitor, single point]"
CN1c2ccccc2-c2nc3ccccc3n2C1c1cccs1 (stereo not drawn),–,"inconclusive [activator, partial curve]"
CCOC(=O)Cn1nnnc1C(CC)N(Cc1cccs1)Cc1cc2cc(C)ccc2[nH]c1=O (stereo not drawn),–,"inconclusive [inhibitor, single point]"
C=CCNC(=S)NNC(=O)c1cc(O)ccc1O,–,"inconclusive [inhibitor, single point]"
CNC(=O)COC(=O)c1cc(=O)[nH]c2ccccc12,–,"inconclusive [inhibitor, single point]"
O=C(Nc1ccccc1)c1cccnc1Nc1ccccc1,–,"inconclusive [inhibitor, partial curve]"
CCOC(=O)c1cc2c(=O)n3cccc(C)c3nc2n(CCCOC)c1=NC(=O)c1cccnc1,–,"inconclusive [activator, partial curve]"
O=c1c2ccccc2nc(-c2ccc(Br)cc2)n1Cc1ccccc1,–,"inconclusive [inhibitor, single point]"
CCN(CC)c1ccc(/C=N/NC(=O)c2cccc(S(=O)(=O)Nc3ccccc3OC)c2)c(O)c1,–,"inconclusive [inhibitor, single point]"
Clc1ccc2oc(-c3cccnc3NCc3ccccc3)nc2c1,–,"inconclusive [activator, partial curve]"
Cc1nn(-c2ccccc2)c(C)c1/C=N/NC(=O)CSc1nnc(SCc2cccc3ccccc23)s1,–,"inconclusive [inhibitor, partial curve]"
Cc1cc(C)n(CC(=O)c2ccc(Br)cc2)c(=O)c1C#N,–,"inconclusive [inhibitor, single point]"
C/C(=N/O)c1ccc(N2C(=O)C3C4C=CC(C3C2=O)C2C3C(=O)N(c5ccc(/C(C)=N/O)cc5)C(=O)C3C42)cc1 (stereo not drawn),inactive: 10.2%,–

SMILES,"activity change, negative = inhibition",Potency
O=C(COC(=O)COc1ccccc1)Nc1ccc(S(=O)(=O)N2CCOCC2)cc1,inconclusive: -15.9% [inhibitor],–
CC1(C)Cc2c(sc3c2C(=O)N(c2ccccc2)C2=NCCN23)CS1,inconclusive: 16.3% [activator],–
COc1ccc(C)cc1NC(=O)c1ccc(N(C)S(C)(=O)=O)cc1,–,"inconclusive [inhibitor, single point]"
O=S(=O)(Nc1cccc(-c2nnco2)c1)c1ccc(Cl)cc1,–,"inconclusive [inhibitor, partial curve]"
COc1ccc(N2CCN(C(=S)NCc3ccccc3)CC2)cc1,–,"inconclusive [inhibitor, partial curve]"
CCC/C=N/Nc1nc2ccccc2s1,inconclusive: 16.2% [activator],–
Fc1ccc(Oc2cnns2)cc1,–,"inconclusive [inhibitor, single point]"
Oc1ccc2ccccc2c1/C=N/Nc1ccccc1,inactive: 5.96%,–
COc1ccc(CC(=O)Nc2cc(S(=O)(=O)N3CCCCC3)ccc2N2CCN(C)CC2)cc1,inconclusive: -18% [inhibitor],–
C=CCn1c(Cc2ccc(OC(C)C)c(Cl)c2)nnc1SCC(N)=O,–,"inconclusive [inhibitor, partial curve, poor fit]"
Clc1ccc(-c2nc3ccccn3c2CN2CCOCC2)cc1,–,"inconclusive [inhibitor, full curve, poor fit]"
CO/N=C/C(=N\Nc1cc(OC)cc(OC)c1)C(=O)c1ccccc1,inconclusive: -18.1% [inhibitor],–
O=C1CCN(Cc2nnnn2CC2CCCO2)c2ccccc2N1 (stereo not drawn),–,"inconclusive [inhibitor, single point]"
O=C1Nc2ccccc2/C1=N\N=C\c1ccc(O)c(O)c1,inactive: -14%,–
CCOC(=O)c1cc2c(=O)n3ccccc3nc2n(C(C)C)c1=NC(=O)c1c(-c2c(F)cccc2Cl)noc1C,–,"inconclusive [activator, single point]"
Oc1cc2c(cc1O)[C@@H](c1ccccc1)CNCC2,inactive: 3.29% [at 15.4 µM],–
Cc1ccc2c(CN3CCN(C(=O)c4ccco4)CC3)cc(=O)oc2c1C,–,"inconclusive [activator, single point]"
COc1ccc(N/N=C(C)/C(=N/O)C(=O)Nc2ccccc2)cc1,–,"inconclusive [inhibitor, full curve, poor fit]"
CC1(C)Oc2ccc3ccc(=O)oc3c2/C(=C/Nc2cccc(O)c2)C1=O,–,"inconclusive [inhibitor, single point]"
Cn1c(N)c(C(=O)COC(=O)c2ccc3c(c2)C(=O)N(c2ccc(Cl)cc2)C3=O)c(=O)n(C)c1=O,inconclusive: 15% [activator],–
CC(C)c1ccc(C2NC(=O)NC3=C2CCc2ccccc23)cc1 (stereo not drawn),inconclusive: 23.1% [activator],–
O=C(CCc1ccccc1)NNC(=O)c1ccc(F)cc1,inconclusive: 24.1% [activator],–

# Reference: PubChem BioAssay AID1466 (National Center for Advancing Translational Sciences (NCATS), 2008)
